# Data reported in paper PMC4336329 (PLoS ONE, 2015).
# Out of some 310,000 compounds screened, about 14,000 (4.5%) showed an effect of 50% or more. Effects have a minus sign here. Some of the results follow.
# Target: human ether-à-go-go-related gene (hERG) potassium channel (human, UniProt Q12809)
# Assay: primary screen, population patch clamp on CHO cells stably expressing hERG
# 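Also: peak tail current of the secondary pulse compared with the same well before compound.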
# Chain of human ether-à-go-go-related gene (hERG) potassium channel (Q12809 whole entry, looked up): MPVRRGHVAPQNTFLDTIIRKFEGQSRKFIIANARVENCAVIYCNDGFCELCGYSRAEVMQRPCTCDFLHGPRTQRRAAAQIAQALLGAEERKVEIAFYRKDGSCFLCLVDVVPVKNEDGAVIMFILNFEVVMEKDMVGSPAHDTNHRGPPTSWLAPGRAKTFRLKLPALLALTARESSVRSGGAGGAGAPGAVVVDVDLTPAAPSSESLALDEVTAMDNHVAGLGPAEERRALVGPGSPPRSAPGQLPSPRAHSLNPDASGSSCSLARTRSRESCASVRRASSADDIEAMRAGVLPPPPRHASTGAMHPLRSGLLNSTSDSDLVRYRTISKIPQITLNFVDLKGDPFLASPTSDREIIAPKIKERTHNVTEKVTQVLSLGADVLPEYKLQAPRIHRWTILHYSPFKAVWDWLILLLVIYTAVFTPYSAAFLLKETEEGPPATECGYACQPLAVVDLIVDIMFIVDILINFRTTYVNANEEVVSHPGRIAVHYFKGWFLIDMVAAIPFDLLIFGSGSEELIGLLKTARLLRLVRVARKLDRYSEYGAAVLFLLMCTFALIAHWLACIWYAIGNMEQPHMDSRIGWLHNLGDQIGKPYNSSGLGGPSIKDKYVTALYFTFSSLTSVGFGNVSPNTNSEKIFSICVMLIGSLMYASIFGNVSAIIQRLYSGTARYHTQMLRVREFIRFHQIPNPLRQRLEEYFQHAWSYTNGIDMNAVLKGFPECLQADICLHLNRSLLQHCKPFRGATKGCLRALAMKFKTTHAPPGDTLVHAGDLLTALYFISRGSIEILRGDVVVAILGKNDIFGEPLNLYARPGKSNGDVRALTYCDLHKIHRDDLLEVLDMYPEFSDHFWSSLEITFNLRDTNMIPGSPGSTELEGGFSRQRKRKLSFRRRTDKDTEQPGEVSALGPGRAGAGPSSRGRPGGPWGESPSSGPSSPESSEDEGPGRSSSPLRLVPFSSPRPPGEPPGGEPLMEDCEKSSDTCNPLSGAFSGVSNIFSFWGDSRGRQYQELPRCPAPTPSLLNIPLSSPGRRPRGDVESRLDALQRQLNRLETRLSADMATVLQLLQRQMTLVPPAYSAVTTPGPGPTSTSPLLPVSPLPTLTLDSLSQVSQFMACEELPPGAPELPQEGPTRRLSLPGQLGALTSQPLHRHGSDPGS
row,SMILES,"hERG current change (%, negative = inhibition) at 10uM [%]"
1,O=C(CCOc1ccccc1)N1CCN(S(=O)(=O)c2cccs2)CC1,-9.15
2,CCCCOc1ccc(N(CC(=O)NC2CCCCC2)C(=O)c2snc(C(N)=O)c2N)cc1,1.59
3,COC(=O)c1cc(CNC(=O)c2ccccc2Cl)ccc1OC,0.487
4,CCN(CC(=O)Nc1ccc(S(=O)(=O)N2CCCC2)cc1)Cc1ccccc1,-23.9
5,Cc1nnc(NC2=NCCC2)s1,10.6
6,CCCCC(=O)Nc1nc2c(s1)COc1ccccc1-2,3.76
7,CCOc1ccccc1NC(=O)C1=C(C)NC(=S)NC1c1cccs1 (stereo not shown),-0.276
8,Cc1ccc(CNC(=O)c2cc3c(C)nc4ccccc4c3o2)cc1,2.72
9,CCCCn1c(SCC(=O)N2CCCCC2C)nc2cc(S(N)(=O)=O)ccc21 (stereo not shown),-26.4
10,O=C(CSc1nccc(=O)[nH]1)Nc1cc(C(F)(F)F)ccc1N1CCOCC1,15.5
11,COc1cccc(NC(=S)NCc2ccncc2)c1,-7.35
12,Cc1onc(-c2ccccc2Cl)c1C(=O)Nc1cccc(-c2cn3cccnc3n2)c1,-24.8
13,Cc1ccc(C)c(NC(=O)COC(=O)Cn2c(C)csc2=O)c1,6.84
14,Cc1ccc(N(CC(=O)NCc2ccccc2)C(=O)CCC(=O)Nc2ccccn2)cc1C,16.4
15,CCOc1cccc(OCCOCCN(C)Cc2ccccc2)c1,-49.3
16,O=C(CSc1nnc(C2CCCCC2)o1)N1CCCCC1,1.43
17,O=C(O)Cc1sc(-c2ccccc2)nc1-c1cccs1,15.6
18,Cc1cn2c(=O)c(C(=O)N3CCN(c4ccccc4F)CC3)cnc2s1,-6.27
19,Cl.NC(c1ccccc1)c1ccncc1 (stereo not shown),15.3
20,COc1cccc(O)c1CN1CCC(n2nccc2NC(=O)c2ccc3c(c2)OCO3)CC1,-24
21,CC(=O)c1sc2nc(-c3cccs3)cc(C(F)(F)F)c2c1N,14.5
22,CC(C)NC(=O)/C(=C/c1ccco1)c1ccccc1,-2.25
23,CCCCN1C(=O)C(=O)N(CC(=O)c2ccc3c(c2)OCO3)C1=O,-5.91
24,CCCC(=O)Nc1ccc(C(=O)NCCc2ccc(F)cc2)cc1,8.66
25,CCCn1c(C)cc(/C=C(\C#N)C(=O)OCC(=O)Nc2ccc(OC)c(Cl)c2)c1C,12.1
26,O=C(CNC(=O)c1ccc(Cl)cc1)Nc1ccc(S(=O)(=O)Nc2ncccn2)cc1,2.39
27,O=C1[C@H]2[C@@H](C3CC3)N3C(=O)CN(Cc4ccccn4)C(=O)[C@@]3(Cc3ccccc3)[C@H]2C(=O)N1c1ccccc1,5.24
28,COC(=O)C1=Nc2ccccc2/C1=C\c1c(O)n(C)c(=O)n(C)c1=O,11.2

row,SMILES,"hERG current change (%, negative = inhibition) at 10uM [%]"
1,Cc1onc(-c2ccccc2)c1C(=O)Nc1ccc2c(c1)OCO2,-0.651
2,CCc1ccc2c(c1)c(N=NC1=NC(=O)CS1)c(O)n2CC,11.2
3,CSc1nnc(C(C)c2ncc(C(F)(F)F)cc2Cl)n1C (stereo not shown),8.26
4,Cc1c(C(=O)N2CCCC2)c(S(=O)(=O)N2CCN(c3ccccc3F)CC2)c(C)n1C,-10.7
5,Cc1nc2scc(C)n2c(=O)c1S(=O)(=O)NCc1ccccc1Cl,8.43
6,Cc1ccc(-c2cc(C(=O)OCC(=O)Nc3cc(C)on3)c3ccccc3n2)c(C)c1,2.66
7,CN(Cc1cc(=O)n2ccsc2n1)c1ccccc1,3.26
8,CCCC(=O)O[C@]1(C(=O)CCl)[C@@H](C)C[C@H]2[C@@H]3CCC4=CC(=O)C=C[C@]4(C)[C@@]3(F)C(=O)C[C@@]21C,-15.5
9,CCN(CC(=O)N1CCC(C)CC1)S(=O)(=O)c1ccc(C)cc1,7.48
10,Cc1cccn2c(=O)c(/C=C(\C#N)C(=O)NC3CCS(=O)(=O)C3)c(N3CC(C)OC(C)C3)nc12 (stereo not shown),14.7
11,CCc1ccc(N2CC(C(=O)Nc3ccc(S(=O)(=O)N4CCOCC4)cc3)CC2=O)cc1 (stereo not shown),5.25
12,O=C(NC1CCCCC1)c1cc(-c2ccccc2O)on1,4.01
13,CCc1nnc(NC(=O)CSc2nc3c(c(=O)n2-c2ccccc2OC)SCC3)s1,1.46
14,CC(C)CN(C(=O)Cn1c(Cl)nc2c1c(=O)n(C)c(=O)n2C)C1CCS(=O)(=O)C1 (stereo not shown),-11.1
15,O=C(OCCCN=C1NS(=O)(=O)c2ccccc21)c1ccccc1,-8.79
16,CC1(C)CC(=O)C2=C(C1)OC1=C(C2)C(=O)CC(C)(C)C1,-16.3
17,Clc1ccc(CSc2ncn[nH]2)cc1,-0.0684
18,CCCNC(=O)c1cccc(NC(=O)C(C)C)c1,-25.4
19,NC1=NN=C(N2N=C(c3ccccc3)CC2(O)C(F)(F)F)n2ncnc2C1 (stereo not shown),-34.2
20,Cc1ccccc1NC(=O)CCc1c(C)nn(-c2ccc(N3CCCCC3)nn2)c1C,-3.03
21,Cc1cccc(OCCn2c(-c3ccco3)nc3ccccc32)c1,5.1
22,O=C(CSCC(=O)N1CCCc2ccccc21)Nc1nc(-c2ccccc2)cs1,12.4
23,O=C(COc1ccc2ccc(=O)oc2c1)NC1CCCCC1,1.43
24,Cc1ccc(NC(=S)N2CCC(NC(=O)c3ccc(F)cc3)CC2)cc1,-1.76
25,COc1ccc(CN2CCC(=O)N([C@H](CO)c3ccccc3)CC2)cc1,13.3
26,O=C(O)CSc1nnc(-c2cccc(S(=O)(=O)N3CCOCC3)c2)n1-c1cccc(Cl)c1,12.2
27,Cc1ccn2c(=O)nc(SCC(=O)Nc3cccc4ccccc34)nc2c1,-27.5
